Laboratory results: the antibiotic and cytotoxicity screens of Wong et al. (2023)
Some of the results follow.

How the values were obtained:
HSkMC = human skeletal muscle cells; assay: cytotoxicity call (relative viability < 0.9); details: 10 µM
HepG2 = assay: cytotoxicity call (relative viability < 0.9); details: 10 µM
S. aureus RN4220 = assay: growth inhibition call (relative growth <= 0.2); details: 50 µM

Compound	cytotoxicity call (HSkMC)	cytotoxicity call (HepG2)	growth inhibition call (S. aureus RN4220)
N[C@H](C(=O)O)c1ccc(C(=O)O)c(O)c1	inactive	inactive	inactive
NC(=O)NCCC[C@H](N)C(=O)O	inactive	inactive	inactive
C[C@H]1CN([C@@H](C)CO)C(=O)c2cccc(NC(=O)c3ccncc3)c2O[C@H]1CN(C)Cc1ccc(-c2ccccc2)cc1	inactive	inactive	inactive
COc1ccc2cc1Oc1ccc(cc1)C[C@H]1c3c(cc4c(c3Oc3cc5c(cc3OC)CCN(C)[C@@H]5C2)OCO4)CCN1C	inactive	inactive	inactive
COc1ccc2c3c(n(c2c1)C)[C@H](CO)N(C[C@]13CCN(CC1)C(=O)c1cccnc1)C(=O)c1cccnc1	inactive	inactive	inactive
CO[C@H]1CN(C)C(=O)c2ccc(NC(=O)NC(C)C)cc2OC[C@H](C)N(Cc2ccc(-c3ccccn3)cc2)C[C@H]1C	inactive	inactive	inactive
C[C@@H]1CN([C@@H](C)CO)C(=O)c2cc(NS(=O)(=O)c3ccc(F)cc3)ccc2O[C@@H](C)CCCCO[C@H]1CN(C)C(=O)NC1CCCCC1	inactive	inactive	inactive
COc1ccc(S(=O)(=O)Nc2ccc3c(c2)C(=O)N([C@H](C)CO)C[C@H](C)[C@@H](CN(C)C(=O)c2ccccc2)OCCCC[C@@H](C)O3)cc1	inactive	inactive	inactive
C[C@@H]1CN([C@@H](C)CO)C(=O)Cc2cc(NC(=O)Cc3cn(C)c4ccccc34)ccc2O[C@@H]1CN(C)C	inactive	inactive	inactive
C[C@@H]1CN([C@@H](C)CO)C(=O)Cc2cc(NC(=O)Nc3ccc(F)cc3)ccc2O[C@@H]1CN(C)S(C)(=O)=O	inactive	inactive	inactive
CN1CCN(C(=O)C[C@@H]2C[C@@H]3c4cc(NC(=O)c5ccc6c(c5)OCO6)ccc4O[C@@H]3[C@H](CO)O2)CC1	inactive	inactive	inactive
C[C@H](CO)N1C[C@H](C)[C@@H](CN(C)S(=O)(=O)c2cn(C)cn2)Oc2c(NS(=O)(=O)c3cn(C)cn3)cccc2C1=O	inactive	inactive	inactive
CCCNC(=O)C[C@H]1CC[C@H]2[C@H](COc3ccc(NS(=O)(=O)c4ccccc4C)cc3C(=O)N2C)O1	inactive	inactive	inactive
C[C@@H]1CCCCO[C@H](CN(C)C)[C@H](C)CN([C@H](C)CO)C(=O)c2cc(NS(=O)(=O)c3cn(C)cn3)ccc2O1	inactive	inactive	inactive
CC(C)NC(=O)Nc1ccc2c(c1)C(=O)N([C@@H](C)CO)C[C@@H](C)[C@@H](CN(C)C(=O)Nc1ccc(F)cc1)OCCCC[C@@H](C)O2	inactive	inactive	inactive
COc1ccc(NC(=O)Nc2ccc3c(c2)C(=O)N([C@@H](C)CO)C[C@@H](C)[C@H](CN(C)Cc2ccc(C(=O)O)cc2)OCCCC[C@@H](C)O3)cc1	inactive	inactive	inactive
CC(C)(C)[S@](=O)N1Cc2cc(C(=O)N3CCCCC3)nc(-c3cccc(-c4cccc(C#N)c4)c3)c2[C@@H]1CCO	inactive	inactive	inactive
COC(=O)CCCCCCC(=O)NN	inactive	inactive	inactive
C[C@@H]1CN([C@H](C)CO)C(=O)c2cc(C3=CCCCC3)cnc2O[C@@H]1CN(C)C(=O)CN1CCOCC1	inactive	inactive	inactive

Compound	cytotoxicity call (HSkMC)	cytotoxicity call (HepG2)	growth inhibition call (S. aureus RN4220)
Cc1noc(C)c1NC(=O)N(C)C[C@@H]1Oc2ccc(NC(=O)NC(C)C)cc2CC(=O)N([C@H](C)CO)C[C@H]1C	inactive	inactive	inactive
COCCN1CCC(N(Cc2ccc(-c3ccc(C(F)(F)F)cc3)cc2)C(=O)Cn2c(SCc3cccc(F)c3F)cc(=O)c3ccccc32)CC1	active	active	inactive
COc1cccc(-c2cn(CC[C@@H]3CC[C@@H](NC(=O)CN(C)C)[C@H](CO)O3)nn2)c1	inactive	inactive	inactive
Cc1noc(C)c1S(=O)(=O)Nc1ccc2c(c1)C(=O)N([C@H](C)CO)C[C@@H](C)[C@@H](CN(C)CC1CCCCC1)OCCCC[C@@H](C)O2	inactive	inactive	inactive
COc1ccc(CN(C)C[C@@H]2Oc3c(NC(=O)c4cc(C)nn4C)cccc3C(=O)N([C@H](C)CO)C[C@@H]2C)cc1	inactive	inactive	inactive
Cc1ccc(S(=O)(=O)Nc2ccc3c(c2)C(=O)N([C@H](C)CO)C[C@H](C)[C@@H](CN(C)S(=O)(=O)c2ccc(Cl)cc2)OCCCC[C@H](C)O3)cc1	inactive	active	inactive
C[C@H]1CN([C@@H](C)CO)C(=O)CCCn2nncc2CO[C@@H]1CN(C)C(=O)Nc1ccnc(N2CCOCC2)c1	inactive	inactive	inactive
Cc1noc(C)c1NC(=O)Nc1ccc2c(c1)C(=O)N([C@@H](C)CO)C[C@@H](C)[C@@H](CN(C)S(=O)(=O)c1c(C)noc1C)O2	inactive	inactive	inactive
C[C@@H]1CN([C@H](C)CO)C(=O)c2cccc(NC(=O)CCCCCC(=O)Nc3ccccc3N)c2O[C@@H]1CN(C)Cc1ccccc1	inactive	inactive	inactive
C[C@@H]1CN([C@@H](C)CO)C(=O)c2cc(NC(=O)Cn3cnnn3)ccc2O[C@@H]1CN(C)CC1CC1	inactive	inactive	inactive
Cc1ccc(S(=O)(=O)Nc2ccc3c(c2)C(=O)N([C@H](C)CO)C[C@H](C)[C@H](CN(C)C(=O)Nc2ccccc2)OCCCC[C@H](C)O3)cc1	inactive	inactive	inactive
C[C@@H]1CCCCO[C@H](CN(C)C(=O)Nc2cccc3ccccc23)[C@H](C)CN([C@H](C)CO)C(=O)c2cc(NS(=O)(=O)c3cccs3)ccc2O1	active	active	inactive
C/C=C/C1=CC(=O)[C@H](O)[C@H]1O	inactive	inactive	inactive
C[C@@H]1CN([C@H](C)CO)C(=O)Cc2cc(NS(=O)(=O)c3ccccc3)ccc2O[C@@H]1CN(C)Cc1ccc(-c2ccccc2)cc1	inactive	inactive	inactive
C[C@@H]1CN([C@@H](C)CO)C(=O)c2cc(C#CCN(C)C)cnc2O[C@@H]1CN(C)C(=O)Nc1cccc(F)c1	inactive	inactive	inactive
C[C@H](C(=O)O)N1C(=O)CSC1=O	inactive	inactive	inactive
COc1ccc(CN(C)C[C@@H]2OCCCC[C@@H](C)Oc3ccc(NC(=O)CCC(F)(F)F)cc3C(=O)N([C@H](C)CO)C[C@H]2C)cc1	inactive	inactive	inactive
C[C@@H]1CCCCO[C@@H](CN(C)C(=O)Nc2ccc3c(c2)OCO3)[C@@H](C)CN([C@H](C)CO)C(=O)c2cc(NC(=O)Nc3ccc(F)cc3)ccc2O1	inactive	inactive	inactive
C[C@H](CO)N1C[C@H](C)[C@@H](CN(C)CC2CC2)OCCCC[C@H](C)Oc2ccc(NC(=O)NC3CCCCC3)cc2C1=O	inactive	inactive	inactive
